{"source": "the supplement of paper PMC8728848", "test_in_all_cases": "glycan array binding signal (z-score within array); higher = stronger binding", "conditions_in_all_cases": "glycan notation: IUPAC condensed, linker removed", "key": {"[1]": {"target": "Gal(b1-4)GlcNAc(b1-2)[Gal(b1-4)GlcNAc(b1-6)]Man(a1-6)[Gal(b1-4)GlcNAc(b1-2)Man(a1-3)]Man(b1-4)GlcNAc(b1-4)[Fuc(a1-6)]GlcNAc", "how_it_was_run": "(§1)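 Columns mapping to the same glycan were averaged after glycan names were converted to IUPAC-condensed notation. The data come from 3228 arrays in the Consortium for Functional Glycomics database, limited to those with an available protein sequence. Binding is reported as a within-array Z-score averaged across arrays of one protein sequence and across linkers.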"}, "[2]": {"target": "Gal(b1-4)GlcNAc(b1-2)[Gal(b1-4)GlcNAc(b1-6)]Man(a1-6)[GlcNAc(b1-4)][Gal(b1-4)GlcNAc(b1-2)Man(a1-3)]Man(b1-4)GlcNAc(b1-4)GlcNAc", "how_it_was_run": "as §1"}, "[3]": {"target": "Gal(b1-4)GlcNAc(b1-2)[Gal(b1-4)GlcNAc(b1-6)]Man(a1-6)[GlcNAc(b1-4)][Gal(b1-4)GlcNAc(b1-2)[Gal(b1-4)GlcNAc(b1-4)]Man(a1-3)]Man(b1-4)GlcNAc(b1-4)[Fuc(a1-6)]GlcNAc", "how_it_was_run": "as §1"}, "[4]": {"target": "Gal(b1-4)GlcNAc(b1-3)Gal(b1-3)GalNAc", "how_it_was_run": "as §1"}, "[5]": {"target": "Gal(b1-4)GlcNAc(b1-3)Gal(b1-3)GlcNAc", "how_it_was_run": "as §1"}, "[6]": {"target": "Gal(b1-4)GlcNAc(b1-3)Gal(b1-4)Glc", "how_it_was_run": "as §1"}, "[7]": {"target": "Gal(b1-4)GlcNAc(b1-3)Gal(b1-4)GlcNAc", "how_it_was_run": "as §1"}, "[8]": {"target": "Gal(b1-4)GlcNAc(b1-3)Gal(b1-4)GlcNAc(b1-2)Man(a1-3)[Gal(b1-4)GlcNAc(b1-3)Gal(b1-4)GlcNAc(b1-2)Man(a1-6)]Man(b1-4)GlcNAc(b1-4)GlcNAc", "how_it_was_run": "as §1"}, "[9]": {"target": "Gal(b1-4)GlcNAc(b1-3)Gal(b1-4)GlcNAc(b1-2)Man(a1-3)[Gal(b1-4)GlcNAc(b1-3)Gal(b1-4)GlcNAc(b1-2)Man(a1-6)]Man(b1-4)GlcNAc(b1-4)[Fuc(a1-6)]GlcNAc", "how_it_was_run": "as §1"}, "[10]": {"target": "Gal(b1-4)GlcNAc(b1-3)Gal(b1-4)GlcNAc(b1-2)[Gal(b1-4)GlcNAc(b1-3)Gal(b1-4)GlcNAc(b1-6)]Man(a1-6)[Gal(b1-4)GlcNAc(b1-3)Gal(b1-4)GlcNAc(b1-2)Man(a1-3)]Man(b1-4)GlcNAc(b1-4)GlcNAc", "how_it_was_run": "as §1"}, "[11]": {"target": "Gal(b1-4)GlcNAc(b1-3)Gal(b1-4)GlcNAc(b1-2)[Gal(b1-4)GlcNAc(b1-3)Gal(b1-4)GlcNAc(b1-6)]Man(a1-6)[Gal(b1-4)GlcNAc(b1-3)Gal(b1-4)GlcNAc(b1-2)Man(a1-3)]Man(b1-4)GlcNAc(b1-4)[Fuc(a1-6)]GlcNAc", "how_it_was_run": "as §1"}, "[12]": {"target": "Gal(b1-4)GlcNAc(b1-3)Gal(b1-4)GlcNAc(b1-3)Gal(b1-4)GlcNAc", "how_it_was_run": "as §1"}, "[13]": {"target": "Gal(b1-4)GlcNAc(b1-3)Gal(b1-4)GlcNAc(b1-3)Gal(b1-4)GlcNAc(b1-2)Man(a1-3)[Gal(b1-4)GlcNAc(b1-3)Gal(b1-4)GlcNAc(b1-3)Gal(b1-4)GlcNAc(b1-2)Man(a1-6)]Man(b1-4)GlcNAc(b1-4)GlcNAc", "how_it_was_run": "as §1"}, "[14]": {"target": "Gal(b1-4)GlcNAc(b1-3)Gal(b1-4)GlcNAc(b1-3)Gal(b1-4)GlcNAc(b1-2)Man(a1-3)[Gal(b1-4)GlcNAc(b1-3)Gal(b1-4)GlcNAc(b1-3)Gal(b1-4)GlcNAc(b1-2)Man(a1-6)]Man(b1-4)GlcNAc(b1-4)[Fuc(a1-6)]GlcNAc", "how_it_was_run": "as §1"}, "[15]": {"target": "Gal(b1-4)GlcNAc(b1-3)Gal(b1-4)GlcNAc(b1-3)Gal(b1-4)GlcNAc(b1-2)[Gal(b1-4)GlcNAc(b1-3)Gal(b1-4)GlcNAc(b1-3)Gal(b1-4)GlcNAc(b1-6)]Man(a1-6)[Gal(b1-4)GlcNAc(b1-3)Gal(b1-4)GlcNAc(b1-3)Gal(b1-4)GlcNAc(b1-2)Man(a1-3)]Man(b1-4)GlcNAc(b1-4)[Fuc(a1-6)]GlcNAc", "how_it_was_run": "as §1"}, "[16]": {"target": "Gal(b1-4)GlcNAc(b1-3)Gal(b1-4)GlcNAc(b1-3)Gal(b1-4)GlcNAc(b1-3)Gal(b1-4)GlcNAc(b1-2)Man(a1-3)[Gal(b1-4)GlcNAc(b1-3)Gal(b1-4)GlcNAc(b1-3)Gal(b1-4)GlcNAc(b1-3)Gal(b1-4)GlcNAc(b1-2)Man(a1-6)]Man(b1-4)GlcNAc(b1-4)GlcNAc", "how_it_was_run": "as §1"}, "[17]": {"target": "Gal(b1-4)GlcNAc(b1-3)Gal(b1-4)GlcNAc(b1-3)Gal(b1-4)GlcNAc(b1-3)Gal(b1-4)GlcNAc(b1-2)Man(a1-3)[Gal(b1-4)GlcNAc(b1-3)Gal(b1-4)GlcNAc(b1-3)Gal(b1-4)GlcNAc(b1-3)Gal(b1-4)GlcNAc(b1-2)Man(a1-6)]Man(b1-4)GlcNAc(b1-4)[Fuc(a1-6)]GlcNAc", "how_it_was_run": "as §1"}, "[18]": {"target": "Gal(b1-4)GlcNAc(b1-3)Gal(b1-4)GlcNAc(b1-3)Gal(b1-4)GlcNAc(b1-3)Gal(b1-4)GlcNAc(b1-2)[Gal(b1-4)GlcNAc(b1-3)Gal(b1-4)GlcNAc(b1-3)Gal(b1-4)GlcNAc(b1-3)Gal(b1-4)GlcNAc(b1-6)]Man(a1-6)[Gal(b1-4)GlcNAc(b1-3)Gal(b1-4)GlcNAc(b1-3)Gal(b1-4)GlcNAc(b1-3)Gal(b1-4)GlcNAc(b1-2)Man(a1-3)]Man(b1-4)GlcNAc(b1-4)[Fuc(a1-6)]GlcNAc", "how_it_was_run": "as §1"}, "[19]": {"target": "Gal(b1-4)GlcNAc(b1-3)Gal(b1-4)GlcNAc(b1-3)Gal(b1-4)GlcNAc(b1-3)Gal(b1-4)GlcNAc(b1-3)Gal(b1-4)GlcNAc(b1-2)Man(a1-3)[Gal(b1-4)GlcNAc(b1-3)Gal(b1-4)GlcNAc(b1-3)Gal(b1-4)GlcNAc(b1-3)Gal(b1-4)GlcNAc(b1-3)Gal(b1-4)GlcNAc(b1-2)Man(a1-6)]Man(b1-4)GlcNAc(b1-4)GlcNAc", "how_it_was_run": "as §1"}, "[20]": {"target": "Gal(b1-4)GlcNAc(b1-3)Gal(b1-4)GlcNAc(b1-3)Gal(b1-4)GlcNAc(b1-3)Gal(b1-4)GlcNAc(b1-3)Gal(b1-4)GlcNAc(b1-2)Man(a1-3)[Gal(b1-4)GlcNAc(b1-3)Gal(b1-4)GlcNAc(b1-3)Gal(b1-4)GlcNAc(b1-3)Gal(b1-4)GlcNAc(b1-3)Gal(b1-4)GlcNAc(b1-2)Man(a1-6)]Man(b1-4)GlcNAc(b1-4)[Fuc(a1-6)]GlcNAc", "how_it_was_run": "as §1"}, "[21]": {"target": "Gal(b1-4)GlcNAc(b1-3)Gal(b1-4)GlcNAc(b1-3)Gal(b1-4)GlcNAc(b1-3)Gal(b1-4)GlcNAc(b1-3)Gal(b1-4)GlcNAc(b1-2)[Gal(b1-4)GlcNAc(b1-3)Gal(b1-4)GlcNAc(b1-3)Gal(b1-4)GlcNAc(b1-3)Gal(b1-4)GlcNAc(b1-3)Gal(b1-4)GlcNAc(b1-6)]Man(a1-6)[Gal(b1-4)GlcNAc(b1-3)Gal(b1-4)GlcNAc(b1-3)Gal(b1-4)GlcNAc(b1-3)Gal(b1-4)GlcNAc(b1-3)Gal(b1-4)GlcNAc(b1-2)Man(a1-3)]Man(b1-4)GlcNAc(b1-4)[Fuc(a1-6)]GlcNAc", "how_it_was_run": "as §1"}, "[22]": {"target": "Gal(b1-4)GlcNAc(b1-3)Gal(b1-4)GlcNAc(b1-3)Gal(b1-4)GlcNAc(b1-3)Gal(b1-4)GlcNAc(b1-3)Gal(b1-4)GlcNAc(b1-3)Gal(b1-4)GlcNAc(b1-2)Man(a1-3)[Gal(b1-4)GlcNAc(b1-3)Gal(b1-4)GlcNAc(b1-3)Gal(b1-4)GlcNAc(b1-3)Gal(b1-4)GlcNAc(b1-3)Gal(b1-4)GlcNAc(b1-3)Gal(b1-4)GlcNAc(b1-2)Man(a1-6)]Man(b1-4)GlcNAc(b1-4)GlcNAc", "how_it_was_run": "as §1"}, "[23]": {"target": "Gal(b1-4)GlcNAc(b1-3)Gal(b1-4)GlcNAc(b1-3)GalNAc", "how_it_was_run": "as §1"}}, "note": "Some of the results follow."}
{"binder": "GNA (Galanthus nivalis), P30617 (protein) MAKASLLILAAIFLGVITPSCLSDNILYSGETLSTGEFLNYGSFVFIMQEDCNLVLYDVDKPIWATNTGGLSRSCFLSMQTDGNLVVYNPSNKPIWASNTGGQNGNYVCILQKDRNVVIYGTDRWATGTHTGLVGIPASPPSEKYPTAGKIKLVTAK", "values": [{"measurement": "glycan array binding signal (z-score)", "setting": "[1]", "result": -0.161}, {"measurement": "glycan array binding signal (z-score)", "setting": "[2]", "result": -0.156}, {"measurement": "glycan array binding signal (z-score)", "setting": "[3]", "result": -0.172}, {"measurement": "glycan array binding signal (z-score)", "setting": "[4]", "result": -0.118}, {"measurement": "glycan array binding signal (z-score)", "setting": "[5]", "result": -0.174}, {"measurement": "glycan array binding signal (z-score)", "setting": "[6]", "result": -0.076}, {"measurement": "glycan array binding signal (z-score)", "setting": "[7]", "result": -0.131}, {"measurement": "glycan array binding signal (z-score)", "setting": "[8]", "result": 0.05}, {"measurement": "glycan array binding signal (z-score)", "setting": "[9]", "result": 0.087}, {"measurement": "glycan array binding signal (z-score)", "setting": "[10]", "result": -0.093}, {"measurement": "glycan array binding signal (z-score)", "setting": "[11]", "result": -0.113}, {"measurement": "glycan array binding signal (z-score)", "setting": "[12]", "result": -0.163}, {"measurement": "glycan array binding signal (z-score)", "setting": "[13]", "result": 0.061}, {"measurement": "glycan array binding signal (z-score)", "setting": "[14]", "result": -0.039}, {"measurement": "glycan array binding signal (z-score)", "setting": "[15]", "result": -0.116}, {"measurement": "glycan array binding signal (z-score)", "setting": "[16]", "result": -0.076}, {"measurement": "glycan array binding signal (z-score)", "setting": "[17]", "result": -0.052}, {"measurement": "glycan array binding signal (z-score)", "setting": "[18]", "result": -0.122}, {"measurement": "glycan array binding signal (z-score)", "setting": "[19]", "result": -0.155}, {"measurement": "glycan array binding signal (z-score)", "setting": "[20]", "result": -0.106}, {"measurement": "glycan array binding signal (z-score)", "setting": "[21]", "result": -0.018}, {"measurement": "glycan array binding signal (z-score)", "setting": "[22]", "result": -0.001}, {"measurement": "glycan array binding signal (z-score)", "setting": "[23]", "result": -0.039}]}
